# Screen size: about 230,000 compounds; about 3,600 (1.6%) were called active. The shares of active, inactive and inconclusive entries below differ from those in the screen. Calls follow the shape of the dose curve; as a rule, active = well fitted inhibition curve with a large enough effect (not every such curve was filed as active); inconclusive = small, poorly fitted or top-dose-only effect, or another doubt; inactive = no such curve, though single readings can be large or run the other way. Where the call is inconclusive, the potency comes from a doubtful curve fit.
# Molecular target: Lysine-specific demethylase 4E (Homo sapiens) (UniProt B2RXH2)
# Sequence of UniProt B2RXH2 (B2RXH2 whole entry, looked up, the tested form may be a part): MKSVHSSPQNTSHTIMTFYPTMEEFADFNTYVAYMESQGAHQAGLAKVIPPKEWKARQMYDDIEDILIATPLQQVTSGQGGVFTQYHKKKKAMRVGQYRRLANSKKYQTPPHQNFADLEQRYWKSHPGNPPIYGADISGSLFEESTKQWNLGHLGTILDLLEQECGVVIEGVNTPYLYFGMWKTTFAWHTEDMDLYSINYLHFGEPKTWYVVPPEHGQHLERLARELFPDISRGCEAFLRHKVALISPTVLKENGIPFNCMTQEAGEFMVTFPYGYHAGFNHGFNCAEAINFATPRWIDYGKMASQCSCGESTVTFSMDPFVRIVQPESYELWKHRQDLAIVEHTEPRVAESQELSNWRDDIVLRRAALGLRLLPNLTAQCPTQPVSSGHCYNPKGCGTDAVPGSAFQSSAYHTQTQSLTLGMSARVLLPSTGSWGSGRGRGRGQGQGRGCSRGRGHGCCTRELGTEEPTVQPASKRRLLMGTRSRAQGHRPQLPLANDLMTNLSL
# Experiment: qHTS Assay for Inhibitors of Human Jumonji Domain Containing 2E (JMJD2E)
# Conditions: JMJD2E catalytic domain, FDH-coupled NADH fluorescence (FDH is formaldehyde dehydrogenase); series mostly up to 57.1 µM; activity change, negative = inhibition: at the top concentration
# Also: nearly all actives have a fitted effect of over 50% in size.
# 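For activity change, negative = inhibition in this document: 0% = wells with enzyme and -100% = buffer wells without enzyme.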
# Potency is read from the fitted curve at half-maximal effect; tags tell the direction and shape of the fitted curve.
Compound,Potency,"activity change, negative = inhibition"
COCCOC(=O)C1=C(C)Nc2nc(C)nn2C1c1ccc(F)cc1 (centres undefined),"inconclusive: 39.8 µM [inhibitor, single point]",
CCCC1CCc2c(sc(NC(=O)c3cccs3)c2C(N)=O)C1 (centres undefined),"inconclusive: 12.6 µM [inhibitor, partial curve]",
O=C1c2cccc3cccc(c23)C(=O)N1Cc1cccnc1,"inconclusive: 28.2 µM [inhibitor, partial curve]",
O=[N+]([O-])c1cccc2c[nH]nc12,active: 35.5 µM,
Cc1cccc(-n2ncc3c(NCc4cccnc4)ncnc32)c1,"inconclusive: 28.2 µM [inhibitor, partial curve]",
COc1c(N2CCN(C(=S)NC3CC4CCC3C4)C(C)C2)c(F)cc2c(=O)c(C(=O)O)cn(C3CC3)c12 (centres undefined),"inconclusive: 28.2 µM [inhibitor, partial curve]",
COCCCn1c(SCc2nnc(-c3ccccc3)o2)nc2sc3c(c2c1=O)CCC3,"inconclusive: 39.8 µM [inhibitor, single point]",
CCOc1ccc(NC(=S)N2CCCN(Cc3cc(C)ccc3C)C2)cc1,,inactive: 40.1%
CCOC(=O)COc1nc(-c2ccccc2)cc(-c2ccco2)c1C#N,"inconclusive: 28.2 µM [inhibitor, partial curve]",
CCOC(=O)c1sc2nc(-c3ccccc3)ccc2c1N,"inconclusive: 28.2 µM [inhibitor, partial curve]",
C=CCN1C(=O)C2(NC(=O)c3ccccc3N2)c2ccccc21 (centres undefined),"inconclusive: 28.2 µM [inhibitor, partial curve]",
Cc1[nH]c(=O)[nH]c(=O)c1/C=N/NC(=O)[C@H](C)N,"inconclusive: 25.1 µM [inhibitor, single point]",
CCC(C)N1C(=O)S/C(=C/c2ccc3c(c2)n(C)c(=O)n3C)C1=O (centres undefined),"inconclusive: 28.2 µM [inhibitor, single point]",
COc1ccc(Oc2coc3cc(OC(=O)c4cccs4)ccc3c2=O)cc1,"inconclusive: 35.5 µM [inhibitor, single point]",
CCOc1ccc(NC(=S)NCCCc2ccccc2)cc1,,inactive: -1.92%
CCCc1cc2c(c(NC(C)=O)n1)c(=O)oc1ccccc12,"inconclusive: 31.6 µM [inhibitor, single point]",
CC1=NN(Cc2ccccc2)C(=O)C1C(c1ccncc1)C(C#N)C#N (centres undefined),"inconclusive: 22.4 µM [inhibitor, single point]",
CC(=O)Nc1ccc2nc(CN3CCN(CC(C)C)C(CCO)C3)ccc2c1 (centres undefined),"inconclusive: 31.6 µM [inhibitor, partial curve]",
CNCCCCc1cnc(C)c2[nH]c3ccccc3c12,"inconclusive: 28.2 µM [inhibitor, partial curve]",
Cc1cccc(N=C2NC(=O)S/C2=C\c2ccco2)c1,,inactive: -27.1%
N=C1S/C(=C\c2ccco2)C(=O)N1c1nccs1,,inactive: -9.09%
CCCCCCn1c(CN2CCN(CCO)CC2)nc2c1c(=O)n(C)c(=O)n2C,,inactive: 6.24%
COc1cc(-c2nc(-c3ccc4c(c3)-c3ccccc3S4(=O)=O)c(-c3ccccc3)[nH]2)cc(OC)c1OC,"inconclusive: 25.1 µM [inhibitor, partial curve]",

Compound,Potency,"activity change, negative = inhibition"
COc1ccc(NC(=O)c2ccc([N+](=O)[O-])cc2[N+](=O)[O-])c(OC)c1,"inconclusive: 39.8 µM [inhibitor, single point]",
COc1ccccc1C1CC(c2c(-c3ccccc3)c3cc(Cl)ccc3[nH]c2=O)=NN1S(C)(=O)=O (centres undefined),"inconclusive: 3.16 µM [inhibitor, single point]",
Cc1ccc2[nH]c(=O)c(CN(CCCN3CCOCC3)Cc3nnnn3C3CCCC3)cc2c1,"inconclusive: 39.8 µM [inhibitor, single point]",
COc1ccc(NC(=O)Nc2ccc(CC(=O)O)cc2)cc1,"inconclusive: 39.8 µM [inhibitor, single point]",
CC(NC(=O)/C=C/c1ccco1)c1nc2ccccc2n1Cc1cccc(Cl)c1 (centres undefined),,inactive: -6.88%
Cc1nn(Cc2ccccc2Cl)c2sc(C(=O)Nc3nccs3)cc12,"inconclusive: 35.5 µM [inhibitor, partial curve]",
O=c1c2ccccc2nc(-c2ccc([N+](=O)[O-])cc2)n1O,"inconclusive: 39.8 µM [inhibitor, single point]",
CCOc1ccccc1C(=O)N(C)Cc1cc2ccccc2[nH]c1=O,"inconclusive: 28.2 µM [inhibitor, single point]",
COc1ccc(NC(=O)COc2ccc3oc(=O)cc(C)c3c2)cc1,"inconclusive: 39.8 µM [inhibitor, single point]",
Cc1ccc(-n2nc(-c3cccs3)cc2C(=O)NCC2CCCO2)c(C)c1 (centres undefined),,inactive: -0.635%
CCC(=O)Nc1c(C#N)c2nc3ccccc3nc2n1-c1ccccc1C,"inconclusive: 28.2 µM [inhibitor, partial curve]",
O=[N+]([O-])c1cccnc1Oc1ccc(C2SCCS2)cc1,,inactive: -0.618%
O=C(OCC(=O)N1CCCC1)c1ccc(NS(=O)(=O)c2cccs2)cc1O,,inactive: -8.43%
CCN(CC)S(=O)(=O)c1ccc(/C=C/C(=O)OCC(=O)N(C(C)C)C(C)C)cc1,,inactive: 4.5%
O=C(c1cccc(F)c1)N1CCN(C(=O)c2nn3cccnc3c2Cl)CC1,,inactive: -9.75%
O=C1/C(=C/c2ccco2)N=C(N2CCCCC2)N1c1ccccc1,"inconclusive: 25.1 µM [inhibitor, single point]",
COc1cc(Br)cc(C=Nc2cccc(C(F)(F)F)c2)c1O,,inactive: 7.11%
Cc1cc(/C=N/NC(N)=S)c(C)n1-c1cccc(Cl)c1,,inactive: 9.99%
COc1cc2c(cc1OC)C(=O)CC(C)S2 (centres undefined),"inconclusive: 35.5 µM [inhibitor, single point]",
Cc1ccc2cc(C(c3nnnn3C3CCCC3)N(Cc3ccccc3)Cc3ccco3)c(=O)[nH]c2c1 (centres undefined),"inconclusive: 25.1 µM [inhibitor, partial curve]",
CC(=O)c1cccc(NC(=O)c2cc3nc(C)cc(C)n3n2)c1,"inconclusive: 25.1 µM [inhibitor, partial curve]",
N#CC1=C(O)CCCn2c1nc1ccccc1c2=O,"inconclusive: 31.6 µM [inhibitor, partial curve]",
CC(C)S(=O)(=O)c1csc(NC(=O)Nc2ccc(Cl)cc2)c1,,inactive: 0.662%

Compound,Potency,"activity change, negative = inhibition"
CN1CCN(Cc2c(O)ccc3c(-c4ccccc4)cc(=O)oc23)CC1,"inconclusive: 39.8 µM [inhibitor, single point]",
O=C(NCc1ccco1)c1ccc(N2CCOCC2)c([N+](=O)[O-])c1,,inactive: 7.25%
COc1ccc(Br)cc1/C=c1\sc2nc(-c3ccco3)nn2c1=O,,inactive: -7.88%
CCOc1ccc2[nH]c(=O)c(CN(Cc3cccnc3)C(=O)Nc3ccccc3OC)cc2c1,"inconclusive: 28.2 µM [inhibitor, partial curve]",
O=C1c2cccc3cccc(c23)C(=O)N1CCN1CCN(CC(O)COc2ccc3ccccc3c2)CC1 (centres undefined),"inconclusive: 28.2 µM [inhibitor, single point]",
CCOc1c2ccc(C(=O)NCc3ccc(OC(F)(F)F)cc3)cc2nn1CC,"inconclusive: 31.6 µM [inhibitor, partial curve]",
Cc1cc(NC(=O)c2cc3nc(C4CC4)cc(C(F)(F)F)n3n2)no1,"inconclusive: 35.5 µM [inhibitor, single point]",
COc1ccc(OCC(=O)Nc2ccc(S(=O)(=O)N3CCN(C)CC3)cc2)cc1,"inconclusive: 14.1 µM [inhibitor, partial curve, poor fit]",
COCCNc1oc(-c2ccc(Cl)cc2)nc1C#N,"inconclusive: 35.5 µM [inhibitor, partial curve]",
O=C(O)c1ccc2c(c1)C(=O)/C(=C\c1ccco1)C2=O,,inactive: -29.1%
CC1CCCN(S(=O)(=O)c2ccc(C(=O)Nc3ccccc3-c3nc4ccccc4[nH]3)cc2)C1 (centres undefined),"inconclusive: 35.5 µM [inhibitor, single point]",
COc1c(C)cc(Br)cc1C(=O)Nc1ccccc1N1CCN(C(=O)c2ccccc2)CC1,"inconclusive: 35.5 µM [inhibitor, single point]",
COc1ccc(C(=O)O/N=C/c2c(C(F)(F)F)nn(C)c2SCc2ccccc2Cl)cc1,,inactive: 11.4%
CCOC(=O)CSc1nc2cc(OC)ccc2cc1C#N,"inconclusive: 39.8 µM [inhibitor, single point]",
O=c1cc(CO)oc(C(Nc2ccccn2)c2ccccc2Cl)c1O (centres undefined),"inconclusive: 39.8 µM [inhibitor, single point]",
COc1c(N2CCNC(C)C2)c(F)cc2c(=O)c(C(=O)O)cn(C3CC3)c12 (centres undefined),"inconclusive: 25.1 µM [inhibitor, partial curve]",
Fc1ccc(-c2nc3cnccn3c2NC2CCCC2)cc1,,inactive: -6.79%
Cc1c(Br)c(C(=O)NNC(=O)c2ccc(C(C)(C)C)cc2)nn1C,,inactive: 1.45%
O=C(NN=C1CCN(Cc2ccccc2)CC1)c1ccccc1O,"inconclusive: 35.5 µM [inhibitor, single point]",
O=C(CON=C1c2ccccc2-c2ccccc21)NC12CC3CC(CC(C3)C1)C2,"inconclusive: 39.8 µM [inhibitor, single point]",
C=CCOc1ccc(CNc2ccc3[nH]c(=O)[nH]c3c2)cc1OC,"inconclusive: 31.6 µM [inhibitor, partial curve]",
CC(C)(CO)NS(=O)(=O)c1ccc2c(c1)C(=NO)c1cc(S(=O)(=O)NC(C)(C)CO)ccc1-2,"inconclusive: 28.2 µM [inhibitor, partial curve]",
CCNc1nnc(-c2ccncc2)s1,"inconclusive: 28.2 µM [inhibitor, partial curve]",

# Reference: PubChem BioAssay AID2147 (National Center for Advancing Translational Sciences (NCATS), 2009)
